Laboratory results published in ChEMBL document CHEMBL4888484, “Replenishing the malaria drug discovery pipeline: Screening and hit evaluation of the MMV Hit Generation Library 1 (HGL1) against asexual blood stage Plasmodium falciparum ,using a nano luciferase reporter read-out” (2022).
In all, about 150,000 compounds went through this assay and about 540 (0.36%) showed an effect of 50% or more. This is one part of the list.

test system: Plasmodium falciparum; test: Primary screen in NF54 nanoGlo assay, in single point, at 2uM, 72h; a lower Z score goes with more inhibition; assay type: functional, Erythrocyte; conditions: timepoint 72 hour

Row | SMILES | % Inhibition | Z score
1 | Cc1c(C(=O)Nc2ccccc2C(N)=O)cccc1N(C)S(C)(=O)=O | -6% | 0.97
2 | CCn1ccnc1[C@H]1OCCC[C@@H]1C(=O)Nc1ccnn1Cc1ccc(C)cc1 | -4% | 0.61
3 | CCCC(=O)N1CCCN(S(=O)(=O)Cc2ccccc2)CC1 | 1% | -0.09
4 | CCN(C(=O)Cn1c(Nc2cccc(C)c2)nc(C)cc1=O)c1ccccc1 | -15% | 1.58
5 | CCN(CC(=O)N1CCC2(CC1)CN(C(C)=O)[C@@H]1COC[C@@H]12)c1ccccc1 | -6% | 0.91
6 | O=C1Nc2ccc(-c3ccccc3F)cc2C(=O)N2CCN(C(=O)c3ccc(C(F)(F)F)cc3)C[C@@H]12 | -12% | 2.22
7 | OC(CN1CCCC(N2CCCCC2)C1)c1ccccc1 (stereo unspecified) | 7% | -0.8
8 | C[C@@H](C(=O)NCc1cccs1)S(C)(=O)=O | -2% | 0.41
9 | CN1C(=O)N[C@@H]2CN(Cc3ccc(F)cc3)CC[C@@H]21 | -10% | 1.68
10 | COCCN1C(=O)C[C@H](C#N)[C@H]1c1cnn(C)c1C | 1% | -0.15
11 | CCc1nc(CNC(=O)Cc2c3c(n(C[C@H]4CCCO4)c2C)CCCC3=O)no1 | -16% | 2.38
12 | Cc1cccc(-n2cc(CN3C[C@@H]4CC[C@H]3CN(c3cnccn3)C4)cn2)c1 | -2% | 0.24
13 | C#C[C@H](C)OC(=O)c1ccc(Cl)cn1 | 2% | -0.31
14 | NC(=O)N1CCCC(C(=O)OCC2CCCc3ccccc32)C1 (stereo unspecified) | -9% | 1.35
15 | CCc1cc(CN(CC)C[C@H](O)c2cccc(O)c2)on1 | -16% | 2
16 | C[C@H]1COC(C)(C)CN1C(=O)Nc1ccc(C2CC2)cn1 | -12% | 2.17
17 | Cc1cnc(C2CCN(c3ncc(Br)cc3C#N)CC2)s1 | -11% | 1.74
18 | O=C1NC(=O)C2(CCN(c3nc(-c4cccnc4)nc4ccccc34)CC2)N1 | 27% | -3.57
19 | O=c1c2cc3c(=O)n(Cc4ccccc4)c(=O)c3cc2c(=O)n1Cc1ccccc1 | -6% | 1.21
20 | Cc1ccc(NC(=O)c2coc(-c3ccccc3)n2)cc1N1C(=O)CNC1=O | -9% | 1.47
21 | O=C(CCn1cnc2cc(-c3noc(-c4ccccc4)n3)ccc21)N1CCCCCC1 | -17% | 2.21
22 | CC(C)Oc1cc(NC(c2cccs2)[C@H]2C[C@@H](O)C2)nc(N)n1 (stereo partly specified) | 7% | -0.67
23 | c1ccc([C@@H]2CCCCN2Cc2c[nH]cn2)cc1 | -7% | 0.69
24 | CNC(=O)C(C)(C)CNC(=O)Nc1nc(C)nn1-c1ccccc1 | -11% | 1.23
25 | CCN(CC)c1onc(-c2ccccc2)c1CN(CC1CC1)C(=O)c1ccc2c(c1)OCO2 | 7% | -1.43
26 | Cc1cc2cc(CN3C(=O)c4ccccc4[C@@H]3O)ccc2n1C | 35% | -3.94
27 | Cc1ccc(-c2nnc(-c3nn(C)c4c3CN(S(=O)(=O)c3c(C)n[nH]c3C)CC4)o2)cc1 | -2% | 0.14

Row | SMILES | % Inhibition | Z score
28 | Cc1ccccc1OCC(=O)N1CC[C@H](n2nccn2)C1 | 2% | -0.27
29 | Cc1cc(CS(=O)(=O)CCC2CC(C)CC(C)C2)on1 (stereo unspecified) | -4% | 0.8
30 | Cc1cncc(CN2C(=O)CC3(CCC3)C2=O)c1 | -8% | 1.3
31 | CC[C@H](NC(=O)c1ncncc1Cl)c1ccccc1OC(F)F | -4% | 0.72
32 | O=C(Nc1sc2c(c1C(=O)N1CCOCC1)CCCCC2)c1ccccc1Cl | -1% | 0.07
33 | CCCOCC(=O)N1CCN(Cc2cc(C)cc(C)c2)C(=O)C1 | -7% | 0.87
34 | Cc1cc(C)c(CN2CCN(C)CC2)cc1CN(C)Cc1nc2ccc(F)cc2[nH]1 | -1% | 0.14
35 | COc1ccccc1/C=C/CN1C[C@@H]2C[C@H]1C(=O)N2c1ccccc1Cl | 7% | -0.96
36 | Cc1nc([C@H](C)NS(=O)(=O)c2ccc(-c3c(C)noc3C)s2)n[nH]1 | 2% | -0.35
37 | Cc1nn(CC(=O)N(CC(F)(F)F)c2ccccn2)c(C)c1Cl | -6% | 1.12
38 | CCn1nc(CC(C)C)cc1C(=O)N1CCC(c2ccccc2OC)CC1 | 0% | -0.05
39 | Cc1cc(=O)[nH]c(N2CCC[C@H](NC(=O)c3cccnc3C)C2)n1 | -13% | 1.33
40 | Cc1nc(CN(C)C(=O)C(=O)Nc2cc(C(F)(F)F)no2)cs1 | -3% | 0.41
41 | CCC(=O)Nc1ccc2c(c1)c(=O)n(-c1ccccc1)n2CC(=O)Nc1cccc(OC)c1 | -5% | 0.59
42 | O=C1CN(c2cccc3ccccc23)C(=O)CN1c1cccc2ccccc12 | -3% | 0.44
43 | CC(C)c1nc(C2CCCCCN2C(=O)C2CCOC2C(C)C)no1 (stereo unspecified) | -11% | 1.6
44 | CC(C)C[C@H](C)N(C)C(=O)c1ccc(=O)n(C)c1 | -4% | 0.4
45 | CCNC(=O)[C@H](C)Nc1nccc(OC)n1 | 9% | -1.68
46 | CCC(=O)N(C)c1nc2ccccc2n(CC(=O)Nc2ccc3c(c2)OCO3)c1=O | 3% | -0.45
47 | CN1CC2(CN(C(=O)c3csc4ccccc34)C2)OC1=O | -2% | 0.34
48 | Cn1ncc(NC(=O)Cn2ncc3cccnc32)n1 | -1% | 0.16
49 | COCCC(=O)Nc1cc(Cl)cc(Br)c1O | -14% | 1.15
50 | COc1ccccc1N1CC[C@H](C)N(Cc2cc(F)cc3c2OCOC3)CC1 | -3% | 0.43
51 | COCCN(CC1CC1)C(=O)c1ccc2[nH]c(CO)nc2c1 | 3% | -0.38
52 | CN(C)CCn1ccnc1C1CCN(C(=O)c2cccc(N(C)C)c2)CC1 | 7% | -0.84
53 | O=C(CCn1ccnn1)N(c1ccccc1)C1CCCCC1 | -8% | 0.94
